Experimental data published in PMC12136788.
Some of the results follow.

B1: 62551017_62551963_1832_CDS_ENSG00000108854_ENST00000262435|human|control|control (ssRNA)
RNA: GGGAGUUCUACAGUCCGACGAUCGCCAUUUGGUUUAAGUUCAUGCUGAAUAAUUUCACCAUAUGCAUUAUGUUCAACACAGAAGGUAUGGUCCAAAACACCUGUAAUAUCAUUCUCAAGUAUCCACACUAAACUGUUGUGAAGCAACAGAGGAUUGAGCAUCA
B2: chr6:86333760:86333761:-_ENSG00000135316_ENST00000355238|hu_mus|hu_hu_hu_mus_True|18_28 (ssRNA)
RNA: GGGAGUUCUACAGUCCGACGAUCUUCCUCAAGAAUCUGCUCCUUGGUUUUACUCUUAGGAAUCGAGCCCACAAAAAGCCUAUUGUUGGCAACUGAGAUGCAGACACCAAUAUGUUUUCCAGAACGAAUUUCAUGAUUAUUAUACAACAGAGGAUUGAGCAUCA
B3: chr2:113286301:113286302:+_ENSG00000114999_ENST00000233336|hu_hu|FALSE|FALSE (ssRNA)
RNA: GGGAGUUCUACAGUCCGACGAUCAGCUGGCUGGGUCUGAGGUUGCUCCACAUCUGGGGGUGGGAAGACACUGGAAAUGGCUAUGUCCACGAUGCCUUGGCACAGUUCUGCAUAGAGCUUCUGAGCACAUGCAGGGGCACCGUUCAACAGAGGAUUGAGCAUCA
B4: chrX:71549762:71549763:+_ENSMUSG00000019087_ENSMUST00000019231|mus_mus|mus_mus_mus_hu_False|68_98 (ssRNA)
RNA: GGGAGUUCUACAGUCCGACGAUCAAACCCGUGUACUCACUCUUAACAGCACAACAUCACCAGAAAAAAAACAUAACAGCCAAGCAGGACAGACAGUUAAGUAGUACUUCCACACUCCCAAACUCAGGGAGCCCUAUAACCUUACAACAGAGGAUUGAGCAUCA
B5: chr4:175160266:175160267:-_ENSG00000164117_ENST00000503293|hu_mus|motif|central (ssRNA)
RNA: GGGAGUUCUACAGUCCGACGAUCAGGGGCAUGAAUAUGACGAAAAAAUUCUCUCAGUGCAUUCGGCAAGAACUGAUUUCGGAAAUUAUGCAAGGUUACAAGGUCAUCCAAGACAUCUCUCCUUUCAUCAAGAUAGAUUCUCAGCAACAGAGGAUUGAGCAUCA
B6: 98597986_98598106_1487_CDS_ENSMUSG00000028560_ENSMUST00000091358|mouse|control|control (ssRNA)
RNA: GGGAGUUCUACAGUCCGACGAUCAGGUUGUCCUUUGGAGCGCUGGUUAGUUGUUAUUUUUCCAAGACUACAGAACUUGGAAAGAAUGCUGGGUUGCUUAGUGGAUGGCUUUAACCAAUUUAUUUUAACUUUUGAUUUCUUCUGCAACAGAGGAUUGAGCAUCA
B7: chr10:5788261:5788262:+_ENSG00000108021_ENST00000328090|hu_mus|FALSE|FALSE (ssRNA)
RNA: GGGAGUUCUACAGUCCGACGAUCAUAAGCUGUGGUCAAGGUGGCUUGUGUGACAGAAUCAUUAUAAGAAACCAUCUUUGUGCUCUGACAGGUUUUAUCUUCACUGGGAAUACAAGUACCAUGACUUUGGGCACUUACAACACCCAACAGAGGAUUGAGCAUCA
B8: 226175988_226178962_701_3pUTR_ENSG00000143751_ENST00000272091|human|control|control (ssRNA)
RNA: GGGAGUUCUACAGUCCGACGAUCCAUGGAAACCCAUUCCUGAAGUGCUUGGUGCUUCUUCACUGUCAUCAUCUGAACUCUCAGAGUUGGACCCUUCUGCAGUCUCUAGUCCCUCCAUGCCCAACCAGAAGCAUCUCCUCUUUCCAACAGAGGAUUGAGCAUCA
B9: chr4:17845017:17845018:+_ENSG00000109805_ENST00000514176|hu_mus|hu_hu_hu_mus_False|1_58 (ssRNA)
RNA: GGGAGUUCUACAGUCCGACGAUCGCUCUCUUAACUUGUAUCUUCAUUAAGGAACUCUGCAAGGUUAAGUUUACUUUUUCUAGUGCUAGCUGUUUUGGCUCGUCUGGGUAAUCUCAUCUUCAUUUCUGAUGGUGGUUUGGAACUCAACAGAGGAUUGAGCAUCA
B10: chr4:11091628:11091629:+_ENSMUSG00000028211_ENSMUST00000029865|mus_hu|FALSE|FALSE (ssRNA)
RNA: GGGAGUUCUACAGUCCGACGAUCUUCUUUCUCAUUGAAUUCUGGUUCUUGGUUGGAGGAAGAACUGACUUCACCCACAAACAUUUUAUUCAGCCUCUGGAACAUUGUUAAGGCAAGACUGAGAGUUUGGCUGGAUGUCUUUUACAACAGAGGAUUGAGCAUCA
B11: chr12:48362563:48362564:+_ENSG00000134291_ENST00000256686|hu_hu|hu_hu_hu_mus_False|88_98 (ssRNA)
RNA: GGGAGUUCUACAGUCCGACGAUCUCCGUCAAGCCCUUCAAGCCCCACAUAGACUCUAAACUGUAAUCACUUUGUAUGGGGAAGGAAAAGAAACGCCAAAAACUUUCCAAAAAGCGGGGGUGGGGUGAGGCGGGAGGGGGAGGUCAACAGAGGAUUGAGCAUCA
B12: chr3:185643329:185643330:-_ENSG00000136527_ENST00000456380|hu_mus|FALSE|FALSE (ssRNA)
RNA: GGGAGUUCUACAGUCCGACGAUCGACAUGGGAGAAUGGCUGUGGCUGUGGCGCCUGCGAUAAUCUCGGCUGUAAGACCUGCUCCGGGAUCGUCUAUGCGAGCGAGAUCGUGAUCGUGACCUUGUAUAAUGCCUUCUAGAACUUCAACAGAGGAUUGAGCAUCA
B13: chr22:19452774:19452775:-_ENSG00000070010_ENST00000399523|hu_hu|hu_hu_hu_mus_False|68_108 (ssRNA)
RNA: GGGAGUUCUACAGUCCGACGAUCCUUUUCAUUAUAGUUGAUAGCAAUCACAUCUCCAGUCGUCAGACAGGCAAAGUUUCUCAAUGCAUUUUCUAAUACCGCUUUAGGGUUGGUAAUAUCCAGGAAGUCUGGGCUCUGAGGCUGCAACAGAGGAUUGAGCAUCA
B14: 72858643_72858763_662_CDS_ENSG00000164331_ENST00000296785|human|control|control (ssRNA)
RNA: GGGAGUUCUACAGUCCGACGAUCAGUGCUGGGACACUCUUCCACGAUAAGCUGGGCUCCAAUAUCCAGAUUUGUUGAUGUAUCCAUGAUUUCAACUGUAGUUUCAAUAACUAAAACAUUUCUUCAUGAUUUCCUCUUGGUUUUCAACAGAGGAUUGAGCAUCA

Target: T1, UNK ZnF1-3 (human, UniProt Q9C0B0 31-174)
T1 sequence: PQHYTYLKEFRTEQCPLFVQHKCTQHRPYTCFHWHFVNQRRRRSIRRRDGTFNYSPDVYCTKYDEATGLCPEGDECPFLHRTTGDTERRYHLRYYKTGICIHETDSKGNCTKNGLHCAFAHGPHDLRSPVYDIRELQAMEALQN
Assay: nsRBNS (natural sequence RNA bind-n-seq); RBNS binding buffer (assumed for nsRBNS): 25 mM Tris pH 7.5, 150 mM KCl, 3 mM MgCl2, 0.01% Triton X-100, 500 ug/ml BSA, 20 U/ml SUPERase-In, 4 C; UNK is unkempt and MSI1 is Musashi-1; names of the RNAs are library labels; protein concentration not given here; high values mean tight binding

Binder	binding signal [enrichment R]
B1	1.09
B2	1.22
B3	1.3
B4	2.33
B5	1.21
B6	1.12
B7	0.996
B8	1.02
B9	0.331
B10	0.535
B11	2.24
B12	0.854
B13	1.08
B14	0.648
